# Test results from PubChem BioAssay AID463173 (ICCB-Longwood Screening Facility, Harvard Medical School, 2010).
# In all, about 52,000 compounds went through this assay and about 1,700 (3.3%) were called active. No stated cut-off is given here; in the data, active means survival mostly below about 52% (no sharp cut-off); inactive means mostly above about 56%. Some of the results follow.
# Tested on: Wild type
# Assay: S. aureus survival, RN4220 and DeltatarO strains – OD600, teichoic acid synthesis inhibitors, primary screen (AID 463173)
# Settings: S. aureus RN4220 wild type/DeltatarO growth, OD600, 18 h, active compounds read low, screened at 18.75 µg/mL (by protocol)
row,Structure (SMILES),survival
1,CCC(=O)N1CCc2cc(Br)cc(S(=O)(=O)N3CCCC(C(=O)Nc4cccc(F)c4)C3)c21 (configuration not stated),inactive: 95%
2,CCOc1ccc(CCNC(=O)CCSCc2ccc(Cl)cc2)cc1OCC,inactive: 76%
3,COc1cccc(CNC(=O)CN(c2ccc(C(C)C)cc2)S(=O)(=O)c2c(C)noc2C)c1,inactive: 76%
4,O=C(Nc1cccc(Br)c1)N1CCC(CN2CCCCCC2)CC1,inactive: 67%
5,Cn1c(=O)oc2cc(S(=O)(=O)N3CCC(C(=O)Nc4ccc(F)c(Cl)c4)CC3)ccc21,inactive: 85%
6,CCOC(=O)c1sc(NC(=O)c2cc3nc(-c4ccccc4)cc(C(F)(F)F)n3n2)c(C(=O)OCC)c1C,inactive: 63%
7,Cc1cc(C)cc(Oc2c(C(F)(F)F)oc3cc(OCC(=O)NC4CCCCC4)ccc3c2=O)c1,inactive: 103%
8,O=C(NN1C(=O)c2ccccc2C1=O)C1CC2CCC1C2 (configuration not stated),inactive: 106%
9,CCOC(=O)c1cc(-c2ccccc2)n(-c2cccc(C(=O)Nc3cc(OC)cc(OC)c3)c2)c1C,inactive: 88%
10,CCC(C)NC(=O)CSc1nc2c(sc3ccccc32)c(=O)n1Cc1ccccc1Cl (configuration not stated),inactive: 76%
11,Cc1ccc(C)c(CSc2nc3ccncc3n2CC(=O)Nc2ccc(N(C)C)cc2)c1,inactive: 74%
12,Cc1cccc2nc(-c3cccc(NS(=O)(=O)c4ccccc4)c3)cn12,inactive: 56%
13,Cc1ccc(C)c(Cn2c3ccccc3c3cnn(CC(=O)NCc4ccccc4)c(=O)c32)c1,inactive: 89%
14,Cc1ccc(NC(=O)CSc2nc(-c3ccco3)nc3cc(=O)[nH]n23)cc1C,inactive: 131%
15,Cc1cc(C)c(NC(=O)Nc2ccc3snnc3c2)c(C)c1,inactive: 99%
16,Clc1ccccc1CNc1ncnc2c1c(-c1ccccc1)cn2-c1ccccc1,inactive: 69%
17,Fc1ccccc1Cn1c(-c2ccccc2)nc2ccccc21,active: 1%
18,COCCCNC(=O)CSc1nc2c(sc3ccccc32)c(=O)n1CCCC(=O)NCCOC,inactive: 86%
19,CC(=O)c1ccc(NC(=O)COCc2cc(-c3ccco3)on2)cc1,inactive: 129%
20,COc1cccc(N2CC(NC(=O)c3cccc(OC)c3OC)CC2=O)c1 (configuration not stated),inactive: 82%
21,Cc1ccccc1OCc1nnc(SCc2cc(=O)c3cccc(F)c3[nH]2)n1C,inactive: 83%
22,COc1ccc2c(c1)c1c(c(=O)n(-c3cccc(Cl)c3)c(=O)n1CC(=O)N1CCCC1)n2C,inactive: 73%

row,Structure (SMILES),survival
1,COc1cc2c(cc1OC)CN(C(=O)CCC(=O)O)CC2,inactive: 87%
2,Cc1ccc(-c2cc(C(=O)Oc3ccccc3)c3cc(C)ccc3n2)cc1,inactive: 65%
3,CC(c1ccccc1)n1cc(C(=O)NCC2COc3ccccc3O2)nn1 (configuration not stated),inactive: 117%
4,CCCn1c(SCC(=O)N(C(C)C)C(C)C)nnc1-c1cccnc1,inactive: 110%
5,CCC1CCCCN1CCCNC(=O)CN1C(=O)CSc2ccc(S(=O)(=O)N3CCOCC3)cc21 (configuration not stated),inactive: 67%
6,Cc1cc(NC(=O)C2CCN(S(=O)(=O)c3ccc4[nH]c(=O)oc4c3)CC2)ccc1Br,inactive: 111%
7,COc1ccc2nc(NC(=O)c3nc(S(=O)(=O)Cc4cccc(C)c4)ncc3Cl)sc2c1,inactive: 86%
8,CCOC(=O)Cn1nc(C)c(NC(=O)COc2ccc(Cl)cc2C)c1C,inactive: 69%
9,CCOc1ccccc1NC(=O)Cn1ccn(Cc2ccc(C)cc2)c(=O)c1=O,inactive: 85%
10,Cc1ccc(CN(C(=O)COc2c(C)cccc2C)C2CCS(=O)(=O)C2)o1 (configuration not stated),inactive: 115%
11,COC(=O)c1nc2n(n1)C(c1cc(OC)ccc1OC)C(C(=O)Nc1ccc(C)cc1C)=C(C)N2 (configuration not stated),inactive: 83%
12,Cc1ccc(NC(=O)C(Cc2c[nH]c3ccccc23)NC(=O)OCC(C)C)cc1 (configuration not stated),inactive: 54%
13,COc1ccc(/C=C\C(=O)NC2CC(=O)N(c3ccccc3)C2)cc1OC (configuration not stated),inactive: 134%
14,COc1cc(NC(=O)c2nc(-c3ccncc3)no2)cc(OC)c1OC,inactive: 112%
15,Cc1ccc(Cl)cc1N1CCN(CCNC(=O)Nc2ccccc2Cl)CC1,inactive: 98%
16,CC(C)(C)C(=O)NCCc1csc2nc(-c3ccc(F)cc3)nn12,inactive: 73%
17,CCOC(=O)Cc1cc(=O)[nH]c(/N=C(\N)Nc2ccc3ccccc3c2)n1,inactive: 90%
18,COc1ccc2oc(-c3ccc(C)c(NC(=O)COc4cc(C)cc(C)c4)c3)nc2c1,inactive: 72%
19,CCc1ccc(-n2c(=O)c3c4c(sc3n(CC(=O)c3ccc(Cl)cc3)c2=O)CCC4)cc1,inactive: 139%
20,CSc1cccc(NC(=O)C2CCN(C(=O)c3cnn(-c4ccccc4)c3-n3cccc3)CC2)c1,inactive: 94%
21,O=C(CCS(=O)(=O)c1cccc2nsnc12)Nc1ccc(F)cc1,inactive: 64%
22,Cc1ccc(Cl)cc1NC(=O)C(=O)NCC(c1cccnc1)N1CCc2ccccc21 (configuration not stated),inactive: 62%

row,Structure (SMILES),survival
1,Cc1ccc2oc3c(c(=O)c2c1)C1(C(=O)N(C)c2ccccc21)N(CCCO)C3=O (configuration not stated),inactive: 84%
2,COc1ccccc1NC(=O)c1sc2nc3c(cc2c1N)CCCCCC3,inactive: 81%
3,O=C(c1ccccc1)N1c2ncnn2C2(CCCCC2)[C@@H]2CCCC[C@@H]21,inactive: 79%
4,Cc1ccc(-n2nnc(C(=O)Nc3cc(F)ccc3F)c2C)cc1F,inactive: 111%
5,Cc1nn(-c2ccc(N3CCOCC3)nn2)c(C)c1CCC(=O)NCc1ccc(F)cc1,inactive: 153%
6,COC(=O)CSc1nc(N)c(C#N)c(-c2ccccc2)c1C#N,inactive: 112%
7,Cc1ccc2c(c1)C(c1ccc(F)cc1)N(C(=O)c1ccc(OC(C)C)cc1)CC(=O)N2 (configuration not stated),inactive: 105%
8,Cc1ccccc1C(=O)Nc1cc(-c2ccc(Cl)cc2)nn1-c1ccccc1,inactive: 70%
9,COc1cc2[nH]c(=O)n(CCCC(=O)N3CCN(c4cccc(C(F)(F)F)c4)CC3)c(=O)c2cc1OC,inactive: 70%
10,CCS(=O)(=O)N1CCN(C2CCCCCCC2)CC1,inactive: 113%
11,CCOc1ccc(NC(=O)CSc2nc3c(oc4ccccc43)c(=O)n2CCOC)cc1,inactive: 87%
12,Cc1ccn2c(=O)cc(COc3ccc(NC(=O)c4ccccc4F)cc3)nc2c1,inactive: 73%
13,Cn1ncc2nc(SCC(=O)Nc3ccc(Br)cc3F)n(Cc3ccccc3)c(=O)c21,inactive: 48%
14,CC(C(=O)NCC1CCCO1)N(C(=O)c1snc(C(N)=O)c1N)c1cccc(F)c1 (configuration not stated),inactive: 101%
15,Cc1ccc(NC(=O)C2CCN(c3cc(C)nc4c(-c5ccc(Cl)cc5)c(C)nn34)CC2)c(C)c1,inactive: 97%
16,COc1ccccc1N1CCN(C(=O)CN2C(=O)COc3ccc(S(=O)(=O)N4CCC(C)CC4)cc32)CC1,inactive: 98%
17,COc1ccc(C(=O)CSc2c(C(C)C)cnc3c2c(=O)n(C)c(=O)n3C)cc1,inactive: 74%
18,CCOC(=O)c1cnc2c(CC)cccc2c1NCCO,inactive: 116%
19,Cc1cccc(N2CCN(c3cccc(C)c3)C2c2cccnc2)c1,inactive: 111%
20,Cc1ccc2nc(N(Cc3cccnc3)C(=O)CCS(=O)(=O)c3ccccc3)sc2c1,inactive: 73%
21,CC(=O)c1ccc(NC(=O)CSc2nc(-c3cccc(F)c3)nc3c2c(=O)n(C)c(=O)n3C)cc1,inactive: 83%
22,CCOc1ccc(CCNC(=O)CN2N=C(c3ccccc3)CCC2=O)cc1OCC,inactive: 85%

row,Structure (SMILES),survival
1,CCCCN(CC)CCCNC(=O)c1cc2c(=O)[nH]c3ccccc3c2s1,inactive: 135%
2,CN1C(C(=O)Nc2ccc(F)cc2F)=CC(c2ccc3c(c2)OCO3)=NS1(=O)=O,inactive: 74%
3,Cc1cc(C)cc(NC(=O)CN2C(=O)c3ccccc3Sc3ncccc32)c1,inactive: 92%
4,COc1ccc(CNC(=O)c2ccc3c(c2)nc2n3CCOC2)c(OC)c1,inactive: 81%
5,Cc1ccc(CN(Cc2ccco2)C(=O)COc2ccc(C(C)C)cc2)cc1,inactive: 111%
6,O=C1c2ccc(-c3ccc4c(c3)C(=O)N(CCO)C4=O)cc2C(=O)N1CCO,inactive: 113%
7,Cc1ccc(-c2cc(C(F)(F)F)c(C#N)c(SCC(=O)Nc3ccccc3)n2)cc1,inactive: 72%
8,COc1ccc(OC)c(CCNC(=O)c2csc3c2CCCCC3)c1,inactive: 34%
9,CCOC(=O)C(C)NC(=O)c1c(C)oc2ncn(CC(C)C)c(=O)c12 (configuration not stated),inactive: 72%
10,CCOC(=O)C1CCN(C(=O)c2ccc3c(=O)n4nc(Nc5cc(C)ccc5C)sc4nc3c2)CC1,inactive: 72%
11,CCOc1cccc(C2c3c(-c4cc(C)ccc4O)n[nH]c3C(=O)N2Cc2ccco2)c1 (configuration not stated),inactive: 27%
12,Cc1ccc(CNC(=O)c2cc3c(=O)n(Cc4cccnc4)ccc3nc2C)cc1,inactive: 74%
13,CCC(=O)C1=C(c2cccc(OC)c2)N(C(=O)CC)n2c(nnc2C2CCCCC2)S1,inactive: 47%
14,CCn1cc(C(=O)N2CCN(c3ccc(C(C)=O)cc3)CC2)c2cc(OC)c(OC)cc2c1=O,inactive: 140%
15,Cc1ccc(NC(=O)Cn2c(=O)oc3cc(S(=O)(=O)NCc4ccccc4)ccc32)cc1,inactive: 81%
16,Cc1cccc(C)c1OCc1nc2c3c(-c4ccccc4)c(-c4ccccc4)oc3ncn2n1,inactive: 75%
17,COc1cccc(NC(=O)C2CCN(c3nn4cc(-c5ccc(F)cc5)nc4s3)CC2)c1,inactive: 89%
18,Cc1cccc2c1-c1sc(C(=O)N(C)c3cccc(C(F)(F)F)c3)cc1CO2,inactive: 24%
19,CC(=O)C1=C(c2ccc(C)c(C)c2)N(C(C)=O)n2c(nnc2-c2ccc(Cl)cc2)S1,inactive: 136%
20,CC(=O)Nc1cc(-n2cnnn2)ccc1C,inactive: 98%
21,CCNC(=O)c1nn(-c2ccccc2C)nc1CO,inactive: 115%
